Measured values taken from EP0184861A1, “Derivatives of the 3-mercapto-2-oxo-1-pyrrolidinacetic acid, process for their preparation and pharmaceutical compositions containing them” (PROTER S.p.A., priority 1984, dated 1986).

System: cough iinduced by citric acid in the guineapig
Experiment: anti-cough activity: cough induced by citric acid in the guineapig
[1] = with respect to the controls, dose 1 mM/kg/i.p.

Row | Structure (SMILES) | reduction of the cough [1] | reduction of the cough (dose 5 mg/kg i.p.)
1 | O=C(O)CN1CCC(S)C1=O (stereo not drawn) [V, 3-mercapto-2-oxo-1-pyrrolidinyl acetic acid] | 74% | 
2 | O=C(O)CN1CCC(SC(=O)c2cccs2)C1=O (stereo not drawn) [VI, 3-(2-thenoylthio)-2-oxo-1-pyrrolidinyl acetic acid] | 68.50% | 
3 | COc1ccc2c3c1O[C@H]1[C@@H](O)C=C[C@H]4[C@@H](C2)N(C)CC[C@@]341 [codeine phosphate, reference compound] |  | 87.00%
